The antibiotic and cytotoxicity screens of Wong et al. (2023)
This is one part of the list.

Legend:
HSkMC = human skeletal muscle cells; assay: cytotoxicity call (relative viability < 0.9); conditions: 10 µM
HepG2 = assay: cytotoxicity call (relative viability < 0.9); conditions: 10 µM
S. aureus RN4220 = assay: growth inhibition call (relative growth <= 0.2); conditions: 50 µM

| SMILES | cytotoxicity call (HSkMC) | cytotoxicity call (HepG2) | growth inhibition call (S. aureus RN4220) |
| --- | --- | --- | --- |
| C[C@H](CO)N1C[C@H](C)[C@H](CN(C)S(=O)(=O)c2cn(C)cn2)Oc2c(NC(=O)c3cnccn3)cccc2C1=O | inactive | inactive | inactive |
| COc1ccc(S(=O)(=O)Nc2cccc3c2O[C@H](CN(C)Cc2ccc(Cl)c(Cl)c2)[C@H](C)CN([C@@H](C)CO)C3=O)cc1 | inactive | active | inactive |
| Cn1c(N)c(NC(=O)c2cccs2)c(=O)[nH]c1=O | inactive | inactive | inactive |
| C[C@@H]1CCCCO[C@H](CN(C)C(=O)Nc2cccc3ccccc23)[C@@H](C)CN([C@H](C)CO)C(=O)c2cc(NC(=O)Nc3ccc4c(c3)OCO4)ccc2O1 | inactive | inactive | inactive |
| C[C@@H]1CN([C@@H](C)CO)C(=O)c2cc(C#Cc3ccncc3)cnc2O[C@H]1CN(C)C(=O)c1ccccc1F | inactive | inactive | inactive |
| C[C@@H]1CN([C@H](C)CO)C(=O)Cc2cc(NC(=O)c3ccncc3)ccc2O[C@H]1CN(C)S(=O)(=O)c1ccc(Cl)cc1 | inactive | inactive | inactive |
| C[C@H]1CN([C@@H](C)CO)C(=O)Cc2cc(NC(=O)C3CC3)ccc2O[C@@H]1CN(C)C(=O)NC1CCCCC1 | inactive | inactive | inactive |
| CN1C(=O)c2cc(NC(=O)C3CCOCC3)ccc2OC[C@H]2O[C@H](CC(=O)NCCc3ccncc3)CC[C@H]21 | inactive | inactive | inactive |
| COc1ccc(CN(C)C[C@H]2OCCCC[C@H](C)Oc3ccc(NS(=O)(=O)c4ccc(OC)cc4)cc3C(=O)N([C@H](C)CO)C[C@@H]2C)cc1 | inactive | inactive | inactive |
| C[C@@H]1CN([C@H](C)CO)C(=O)c2cc(C#CCc3ccccc3)cnc2O[C@H]1CN(C)C(=O)C1CCOCC1 | inactive | inactive | inactive |
| CCOC(=O)N(C)C[C@H]1OCc2cn(nn2)CCCC(=O)N([C@H](C)CO)C[C@H]1C | inactive | inactive | inactive |
| C[C@H]1CN([C@@H](C)CO)S(=O)(=O)c2ccc(Br)cc2O[C@@H]1CN(C)S(=O)(=O)c1ccc(F)cc1 | inactive | inactive | inactive |
| CC1OC(OCC2OC(Oc3c(-c4ccc(OCCO)c(OCCO)c4)oc4cc(OCCO)cc(O)c4c3=O)C(O)C(O)C2O)C(O)C(O)C1O (stereo unspecified) | inactive | inactive | inactive |
| C[C@H](CO)N1C[C@H](C)[C@@H](CN(C)C(=O)Nc2ccc3c(c2)OCO3)OCCCC[C@H](C)Oc2ccc(NC(=O)c3ccncc3)cc2C1=O | inactive | inactive | inactive |
| COC(=O)c1cccnc1 | inactive | inactive | inactive |
| Cc1cccc(S(=O)(=O)N2C[C@@H](O)COC[C@@H]3O[C@@H](CC(=O)N4CCN(C)CC4)CC[C@H]32)c1 | inactive | inactive | inactive |
| C[C@@H]1CN([C@@H](C)CO)C(=O)c2cc(NS(C)(=O)=O)ccc2O[C@@H](C)CCCCO[C@H]1CN(C)C(=O)CCCN(C)C | inactive | inactive | inactive |
| CC(C)NC(=O)N(C)C[C@H]1OCCCC[C@@H](C)Oc2ccc(NC(=O)C3CCCCC3)cc2C(=O)N([C@H](C)CO)C[C@H]1C | inactive | inactive | inactive |
| CCN1C[C@]23CN(Cc4cnn(C)c4)C[C@@H](C[C@H]2S1(=O)=O)O3 | inactive | inactive | inactive |
| CCOc1ccnc2c1c(=O)n(CC(N)=O)c(=O)n2C | inactive | inactive | inactive |
| C[C@H]1CN([C@@H](C)CO)C(=O)c2cccc(NC(=O)CCCCCC(=O)Nc3ccccc3N)c2O[C@@H]1CN(C)Cc1ccc(Cl)c(Cl)c1 | inactive | active | inactive |
| C[C@H](CO)N1C[C@H](C)[C@@H](CN(C)Cc2ccc(Cl)c(Cl)c2)Oc2ccc(NC(=O)C3CCCCC3)cc2C1=O | inactive | inactive | inactive |
| Cc1ccc(F)c(S(=O)(=O)N2[C@@H]3CC[C@@H](C3)[C@H]2c2nc3cccc(OCc4ccc(F)cc4)c3[nH]2)c1 | inactive | active | inactive |
| CO/N=C(\C(=O)N[C@@H]1C(=O)N2C(C(=O)O)=C(C[N+]3(C)CCCC3)CS[C@H]12)c1csc(N)n1 | inactive | inactive | active |
| C[C@@H]1CN([C@@H](C)CO)C(=O)Cc2cc(NC(=O)CCCCCC(=O)Nc3ccccc3N)ccc2O[C@H]1CN(C)S(C)(=O)=O | inactive | inactive | inactive |
| C[C@@H]1CN([C@@H](C)CO)C(=O)c2cc(NC(=O)Nc3ccc(C(F)(F)F)cc3)ccc2O[C@@H](C)CCCCO[C@@H]1CN(C)Cc1ccc2c(c1)OCO2 | inactive | inactive | inactive |
| O=C(C[C@@H]1CC[C@@H]2[C@H](COC[C@@H](O)CN2C(=O)c2cnccn2)O1)N1CCN(c2ccccc2)CC1 | inactive | inactive | inactive |
